From PubChem BioAssay AID651820 (National Center for Advancing Translational Sciences (NCATS), 2012)
The whole screen tested about 340,000 compounds, of which about 12,000 (3.5%) were called active. Inconclusive means that the source gave no clear call. Such entries were picked first, then a sample of the others. The call rests on the fitted dose curve; in most records, active means well fitted inhibition curve with a large enough effect; inconclusive means small, poorly fitted or top-dose-only effect, or another doubt; inactive means no such curve, though single readings can be large or run the other way. No potency is given beside an inconclusive call; the fits are too rough.
On the % scale 0 is the no-effect control and ±100 the full control effect; potency means the concentration at half of the fitted maximal effect; tags describe the fitted curve by direction and shape.

Assay: qHTS Assay for Inhibitors of Hepatitis C Virus (HCV)
Conditions: Huh7.5.1 HCVcc-Cre (HCVcc is cell-culture hepatitis C virus) infection, luciferase reporter, 44 h; activity change, negative = inhibition: at 41.8 µM (top of the series)
In short: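 Cells seeded at 1,000/well and cultured 4 h, then compounds added followed by HCVcc-Cre virus (~0.5 moi). After 44 h further culture, luciferase substrate was added, plates held 15 min at room temperature, and luminescence read for 15 sec.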
In the case of `O=C(COc1ccc(Cl)cc1Br)Nc1ccncc1`, the Potency was inconclusive [inhibitor, partial curve, poor fit].
For `Cc1cc(-c2csc(NC(=O)c3cc4ccccc4o3)n2)c(C)n1C`, the Potency was inconclusive [inhibitor, full curve].
With `Cc1nc(N2CCN(c3ccccn3)CC2)c2c(C)c(C(=O)Nc3c(F)cc(F)cc3Br)sc2n1` the Potency was active: 12.6 µM.
In the case of `CCC(=O)N1CCC2(CC1)Oc1ccc(F)cc1C(=O)C21CC(c2ccc(Cl)cc2)=NO1` (centres undefined), the “activity change, negative = inhibition” value was inactive: -13.5%.
With `CN1CCN(c2cnn(-c3ccccc3)c(=O)c2Br)CC1` the “activity change, negative = inhibition” value was inactive: 5.81%.
With `Cc1ccccc1N1CCN(C(=S)c2ccc(-c3ccc([N+](=O)[O-])cc3)o2)CC1` the “activity change, negative = inhibition” value was inactive: -5.57%.
With `Cc1cccc(NC(=O)c2oc3ccc(S(=O)(=O)N4CCOCC4)cc3c2C)c1C` the Potency was active: 10 µM.
For `CCCC(=O)N/C(N)=N/c1nc2ccccc2o1`, the Potency was inconclusive [inhibitor, partial curve].
For `CCCSc1cc(NCCOC(C)=O)c([N+](=O)[O-])c2nonc12`, the “activity change, negative = inhibition” value was inactive: 4.65%.
With `O=C(CN1C(=O)/C(=C/c2ccccc2F)Sc2ccccc21)NCc1cccnc1` the Potency was inconclusive [inhibitor, full curve].
With `COc1ccc(Cl)cc1Nc1nc(-c2sc(NC(=O)C(C)(C)C)nc2C)cs1` the Potency was inconclusive [inhibitor, single point].
In the case of `CCOC(=O)c1c(NC(=O)CSc2nnnn2-c2ccccc2OCC)sc2c1CC(C)(C)NC2(C)C`, the Potency was inconclusive [inhibitor, partial curve].
In the case of `CCOC(=O)c1cccc(NC(=O)CSc2nnc(C)n2CC2CCCO2)c1` (centres undefined), the “activity change, negative = inhibition” value was inactive: -4.32%.
With `COc1ccc(OC)c(NP2(=O)OCC(C)([N+](=O)[O-])CO2)c1` (centres undefined) the “activity change, negative = inhibition” value was inactive: 15.6%.
In the case of `CC(=O)N1CCOc2ccc(S(=O)(=O)NC[C@H]3O[C@@H](n4cnc5c(N)ncnc54)[C@H](O)[C@@H]3O)cc21`, the “activity change, negative = inhibition” value was inactive: -0.998%.
In the case of `CC(C)(C)c1ccc(SCCc2ccncc2)cc1`, the Potency was active: 8.91 µM.
In the case of `Cc1[nH]c2ccccc2c1/C=N/NS(=O)(=O)c1ccccc1`, the “activity change, negative = inhibition” value was inactive: -2.48%.
With `CCCCN(CC)S(=O)(=O)c1ccccc1` the “activity change, negative = inhibition” value was inactive: 4.47%.
With `COc1cccc(-c2nc(C(N)=O)c3[nH]c(=O)n(-c4ccccc4)c3n2)c1OC` the Potency was inconclusive [inhibitor, partial curve].
With `CCOC(=O)C1(CCOc2ccccc2)CCN(Cc2cccc(OC)c2O)CC1` the Potency was inconclusive [inhibitor, single point].
With `O=C(COc1ccc2oc(-c3ccccc3)cc(=O)c2c1)Nc1ccccc1` the “activity change, negative = inhibition” value was inactive: -14%.
For `COCCNC(=O)c1cc2nc(-c3ccccc3)cc(C)n2n1`, the Potency was inconclusive [inhibitor, partial curve].
With `CCOC(=O)C1(Cc2ccccc2C)CCCN(C(=O)CCn2nccc2C)C1` (centres undefined) the Potency was inconclusive [inhibitor, single point].
For `C=CCN(c1ccccc1)S(=O)(=O)c1cccc(C(=O)NC2CCN(Cc3ccccc3)CC2)c1`, the Potency was active: 14.1 µM.
With `CCC(c1nnnn1CCc1ccccc1)N1CCN(C(=O)c2ccco2)CC1` (centres undefined) the “activity change, negative = inhibition” value was inactive: 9.77%.
With `CCOc1ccccc1CN1CCNC(=O)C1CC(=O)NC1CCCCCCC1` (centres undefined) the “activity change, negative = inhibition” value was inactive: 7.22%.
In the case of `CN1CCN(c2ccc(S(=O)(=O)N3CCCCC3)cc2[N+](=O)[O-])CC1`, the Potency was inconclusive [inhibitor, single point].
In the case of `COC(=O)c1ccc(NC(=O)CSc2nn3c(=O)c(C)nnc3s2)cc1`, the “activity change, negative = inhibition” value was inactive: 7.53%.
In the case of `CC1=C(C(=O)Nc2cc(C(=O)N3CCN(c4cccc(C)c4)C(C)C3)ccc2C)SCCO1` (centres undefined), the Potency was inconclusive [inhibitor, single point].
With `Cc1csc(SCC(=O)NC(C)c2ccccc2)n1` (centres undefined) the “activity change, negative = inhibition” value was inactive: -1.51%.
With `CN(C(=O)Cc1c[nH]c2ccccc12)C(C(=O)Nc1ccc2c(c1)OCO2)c1ccccc1` (centres undefined) the Potency was inconclusive [inhibitor, partial curve, poor fit].
With `Cc1cccc(OCC(=O)NNc2c3ccccc3nc3ccccc23)c1` the Potency was active: 1 µM.
In the case of `CCOC(=O)[C@H]1[C@H]2COc3ccc(Br)cc3[C@@H]2N2C(=O)c3cc(Br)ccc3NC(=O)[C@@]12C`, the Potency was inconclusive [inhibitor, single point].
For `Cn1cccc1Cc1nnc(SCC(=O)Nc2ccc(F)cc2)n1CCc1ccccc1`, the Potency was inconclusive [inhibitor, single point].
In the case of `Oc1c(CN2CCN(c3ccccc3)CC2)cc(Br)c2cccnc12`, the Potency was inconclusive [inhibitor, full curve].
For `C=CCC1CCCC(=O)N2CCCC12` (centres undefined), the “activity change, negative = inhibition” value was inactive: 12.1%.
In the case of `Cc1ccc(OCC(O)CN2CCN(CC(O)COc3ccc(C)cc3Cl)CC2)c(Cl)c1` (centres undefined), the Potency was active: 25.1 µM.
In the case of `O=[N+]([O-])c1ccc(N2CCNCC2)cc1NCc1cccnc1`, the Potency was inconclusive [inhibitor, partial curve].
For `CCN(CC)c1ccc(/C=N/NC(=O)Cc2cccs2)c(O)c1`, the Potency was inconclusive [inhibitor, partial curve, poor fit].
With `CCOC(=O)c1cnc(SC2CC(=O)N(c3ccccc3)C2=O)nc1N` (centres undefined) the “activity change, negative = inhibition” value was inactive: 7.73%.
For `CCCCNS(=O)(=O)c1ccc2nc(SCC(=O)Nc3sccc3C#N)[nH]c2c1`, the “activity change, negative = inhibition” value was inactive: -25.5%.
With `Cc1nn(CC(=O)NC(=O)NC2CCCC(C)C2C)c(=O)c(C#N)c1C` (centres undefined) the Potency was inconclusive [inhibitor, single point].
For `CCOc1cc(C)c(Cl)cc1S(=O)(=O)NCc1ccco1`, the Potency was inconclusive [inhibitor, single point].
In the case of `Cc1ccc(OCCCN2C(=O)C(=O)c3cccc(C)c32)cc1`, the “activity change, negative = inhibition” value was inactive: -23.8%.
With `CC(C)C(C)NC(=O)COc1ccc(-c2ccccc2)cc1` (centres undefined) the Potency was inconclusive [inhibitor, single point].
In the case of `CC1=NN(c2ccc(C)cc2)C(=O)/C1=C\C=C\c1ccccc1`, the “activity change, negative = inhibition” value was inactive: 8.01%.
In the case of `Cc1ccccc1C1C(C#N)=C2N=C(N)c3c(sc4c3CCCCC4)N2C2=C1C(=O)CC(C)(C)C2` (centres undefined), the Potency was inconclusive [inhibitor, full curve, poor fit].
In the case of `CCOC(=O)c1c(NC(=O)c2ccccc2Br)sc2c1CCc1ccccc1-2`, the Potency was inconclusive [inhibitor, full curve].
In the case of `O=C(Nc1ccc2nn(-c3ccccc3)nc2c1)c1ccc2c(c1)OCO2`, the Potency was inconclusive [inhibitor, full curve, poor fit].
For `CN(CC(=O)Nc1cc(S(=O)(=O)N2CCCC2)ccc1Cl)Cc1ccc2c(c1)OCO2`, the Potency was active: 6.31 µM.
With `COc1ccc(C2/C=C\CC(NC(=O)OCC3c4ccccc4-c4ccccc43)CC(=O)N2Cc2ccccc2F)cc1` (centres undefined) the Potency was inconclusive [inhibitor, partial curve].
With `CCCCNC(=O)CNC(=S)N(Cc1ccccc1F)C1CCCCC1` the “activity change, negative = inhibition” value was inactive: -23.6%.
In the case of `Cc1cc2nc(CCl)cc(=O)n2[nH]1`, the Potency was inconclusive [inhibitor, single point].
For `Cc1ccc(NC(=O)C2(N(C(=O)Cn3nnnc3N)c3ccc(C)cc3)CCCCC2)cc1`, the “activity change, negative = inhibition” value was inactive: 2.57%.
For `COc1cc(C#N)c(NS(=O)(=O)c2ccc3[nH]c(=O)sc3c2)cc1OC`, the “activity change, negative = inhibition” value was inactive: 24.9%.
In the case of `COc1ccc(S(=O)(=O)Nc2ccc(S(=O)(=O)N3CCCCC3)cc2)cc1C`, the Potency was active: 35.5 µM.
With `CC(=O)Nc1cccc(Oc2ncnc3scc(-c4ccccc4)c23)c1` the Potency was inconclusive [inhibitor, partial curve].
For `COC(=O)C1=Nc2ccccc2/C1=C\c1c(O)n(-c2cc(OC)ccc2OC)c(=O)[nH]c1=O`, the Potency was inconclusive [inhibitor, single point].
With `O=S(=O)(CCc1nnc(-c2ccccc2)o1)c1ccc2ccccc2c1` the “activity change, negative = inhibition” value was inactive: -5.52%.
For `O=C1NCCC/C1=N/Nc1cc(F)ccc1F`, the “activity change, negative = inhibition” value was inactive: -22%.
For `O=C1NC(c2cc(Cl)cc([N+](=O)[O-])c2O)Nc2ccccc21` (centres undefined), the “activity change, negative = inhibition” value was inactive: 3.18%.
With `COC(=O)C1=C(C)N=c2s/c(=C/c3cccs3)c(=O)n2C1c1ccc(F)cc1` (centres undefined) the Potency was inconclusive [inhibitor, single point].
With `CCCCCCOc1ccc(OCC(O)CN2C(=O)NC(C)(C)C2=O)cc1` (centres undefined) the “activity change, negative = inhibition” value was inactive: 0.174%.
For `O=C(/C=C/c1cccc([N+](=O)[O-])c1)NCc1ccc2c(c1)OCO2`, the Potency was inconclusive [inhibitor, single point].
For `COc1cc2cc(C)nc(Cc3cccc4ccccc34)c2cc1OC`, the Potency was inconclusive [inhibitor, single point].
With `COc1ccc(S(=O)(=O)N/N=C\c2ccc(OC)c(COc3ccc(C)cc3[N+](=O)[O-])c2)cc1` the Potency was inconclusive [inhibitor, partial curve].
In the case of `COc1ccc(S(=O)(=O)N2CCCCC2)cc1NC(=O)CN(C)C1CCCCC1`, the Potency was active: 11.2 µM.
In the case of `CC/C(=N\NC(=S)Nc1ccccc1)c1c(O)[nH]c(=O)[nH]c1=O`, the “activity change, negative = inhibition” value was inactive: 17.3%.
For `c1cc(CN2CCCCC2)cc(OCCCNc2nc3ccccc3s2)c1`, the Potency was inconclusive [inhibitor, partial curve].
With `COc1ccc(/C=C/C(=O)c2ccc([N+](=O)[O-])o2)cc1OC` the Potency was active: 5.62 µM.
With `COc1ccc(C(=O)Nc2cccc(NC(=O)c3cccs3)c2)cc1OC` the Potency was inconclusive [inhibitor, partial curve].
In the case of `CN1CCN(c2ccc(Cl)cc2NC(=O)CC2OC(=O)c3ccccc32)CC1` (centres undefined), the Potency was inconclusive [inhibitor, partial curve].
In the case of `Cc1ccc(NC(=O)COC(=O)C2COc3ccccc3O2)cc1` (centres undefined), the “activity change, negative = inhibition” value was inactive: 22.5%.
With `COc1ccc(OC)c(C(=O)/C=C/c2cccnc2)c1` the Potency was inconclusive [inhibitor, single point].
